Experimental data taken from PubChem BioAssay AID1476 (National Center for Advancing Translational Sciences (NCATS), 2009).
“And” between values parts separate entries of the source, which are not always exact repeats. Equal values may be shown once. Out of some 200,000 compounds screened, about 4,500 (2.2%) were called active. This list was built around the results that the source calls inconclusive (neither active nor inactive); the mix of calls is not that of the screen. Calls come from the whole dose curve; as a rule, active = well fitted inhibition curve with a large enough effect; inconclusive = small, poorly fitted or top-dose-only effect, or effect the other way; inactive = flat fitted curve, though single readings scatter. Potencies of inconclusive entries are doubtful fits and often do not repeat.

molecular target: Cruzipain (Trypanosoma cruzi) (UniProt P25779); assay: qHTS Assay for Promiscuous and Specific Inhibitors of Cruzain (without detergent); details: purified cruzain, Z-FR-AMC fluorescence, no detergent; note: nearly all actives have a fitted effect of over 40% in size
UniProt P25779, sequence (P25779 whole entry, looked up): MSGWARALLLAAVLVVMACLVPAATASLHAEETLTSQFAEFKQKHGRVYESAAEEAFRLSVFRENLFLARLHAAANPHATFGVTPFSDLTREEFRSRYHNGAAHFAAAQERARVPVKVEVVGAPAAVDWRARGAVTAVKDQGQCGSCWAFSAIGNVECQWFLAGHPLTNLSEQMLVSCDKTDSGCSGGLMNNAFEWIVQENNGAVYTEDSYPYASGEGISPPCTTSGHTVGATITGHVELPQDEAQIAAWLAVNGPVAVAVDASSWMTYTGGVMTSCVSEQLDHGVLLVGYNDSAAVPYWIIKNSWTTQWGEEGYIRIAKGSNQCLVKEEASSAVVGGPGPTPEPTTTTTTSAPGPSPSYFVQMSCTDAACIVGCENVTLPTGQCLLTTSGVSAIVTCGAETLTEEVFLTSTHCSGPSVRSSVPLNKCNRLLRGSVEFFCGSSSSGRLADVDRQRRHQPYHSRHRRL
Protocol: Cruzain is a cysteine protease from the tropical parasite Trypanosoma cruzi. Dual qHTS experiment was performed against the NCGC compound collection in order to 1) identify novel inhibitors of the enzyme and 2) profile the compound collection for promiscuous inhibitors operating via colloidal aggregation (by performing detergent-free and detergent-containing comparison screens). Cruzain was assayed by the use of fluorogenic coumarin-based substrate Z-FR-AMC: proteolytic cleavage releases AMC, whose fluorescence is measured at 360 nm excitation and 450 nm emission. Purified cruzain was supplied by the labs of Prof. James McKerrow and Brian Shoichet, UC San Francisco.
This assay had 0.00005% Triton X-100 concentration. See also releated assay "qHTS Assay for Promiscuous and Specific Inhibitors of Cruzain (with detergent)" with 0.01% Triton X-100.
See following references for additional details:
Assay Provider: Shoichet, Brian; University of California, San Fancisco
Screening Center PI: Austin, C.P.
Screening Center: NIH Chemical Genomics Center [NCGC]
Buffer: 100 mM Sodium Acetate, pH 5.5, 5 mM DTT, Triton X-100 concentration: 0.01%.
Buffer in columns 3 and 4 as negative control (no enzyme).
Substrate solution: 2 uM final concentration of Z-FR-AMC (catalog number I-1160, Bachem) dispensed throughout the plate.
Enzyme: 1.5 nM Cruzain final concentration in columns 1, 2, 5-48. Column 1 is neutral (100% activity). Column 2 contained titration of covalent inhibitor K11777, starting concentration 1 mM, then 1:2 dilution in duplicate).
Three uL of enzyme or buffer were dispensed to 1536-well Greiner black solid bottom plates. Compounds and controls (23 nL) were transferred via Kalypsys PinTool. The plates were incubated for 15 min at room temperature, and then 1 uL of substrate solution was added to start the reaction. The plates were immediately transferred to and read 4 times every 30 seconds for 2 min on ViewLux High-throughput CCD imager (Perkin-Elmer) using 360 nm excitation and 450 nm emission fluorescence protocol. The fluorescence intensity difference between the third and the first time points (time lapse of 60 seconds) was used to compute reaction progress.
Potency is the fitted concentration of half-maximal effect; tags give direction and shape of the fitted curve.

| SMILES | Potency | max response, negative = inhibition |
| --- | --- | --- |
| CCOc1ccc(NC(=O)CSc2nc(-c3cccs3)cc(C(F)(F)F)n2)c([N+](=O)[O-])c1 | inconclusive: 25.1 µM [inhibitor, single point] | – |
| Cc1cccc2cc(C#N)c(SCC(=O)NNC(=O)Cc3ccccc3)nc12 | active: 25.1 µM | – |
| Cc1ccc(NC(=O)CCc2c(C)nn(-c3ccc(N4CCOCC4)nn3)c2C)cc1F | inconclusive: 39.8 µM [activator, single point] | – |
| O=C(OCc1ccccc1Cl)c1ccc(-c2nnn(Cc3ccccc3Cl)n2)cc1 | – | inactive: -7.44% |
| N#Cc1cn(CC(=O)N2CCCc3ccccc32)c2ccccc12 | inconclusive: 20 µM [inhibitor, single point] | – |
| O=c1c(Cl)c(O)c2cccc3c4ccccc4n1c23 | inconclusive: 31.6 µM [inhibitor, single point] | – |
| Cc1nn(-c2ccc(F)cc2)c(Cl)c1/C=C(\CC(=O)O)c1nc2ccccc2s1 | inconclusive: 6.31 µM [activator, single point] | – |
| CCOCCCNC(=O)CN1C(=O)c2c(c3ccccc3n2C)C1c1ccc(OC)cc1 (configuration not stated) | inconclusive: 25.1 µM [activator, single point] | – |
| COc1ccc(CCCc2nnc(SCC(=O)Nc3ccccc3F)o2)cc1C | – | inactive: -11.7% |
| Cc1ccc(-n2ncc3c(N(CCO)Cc4ccccc4)ncnc32)cc1 | inconclusive: 39.8 µM [activator, single point] | – |
| Cc1ccc(S(=O)(=O)N2CCC(=O)N(C(COCc3cccc(Cl)c3)C(C)C)CC2)cc1 (configuration not stated) | inconclusive: 39.8 µM [activator, single point] | – |
| COc1ccc(C(=O)Nc2ccc(S(=O)(=O)N3CCCCC3)cc2)cc1OC | inconclusive: 31.6 µM [activator, single point] | – |
| COc1cc(NCc2ccc3nc(N)nc(N)c3c2C)cc(OC)c1OC | – | inactive: -16.8% |
| Cn1cccc1/C=C1\SC(=S)N(NC(=O)c2ccccc2)C1=O | inconclusive: 39.8 µM [inhibitor, single point] | – |
| Cc1ccc(S(=O)(=O)N[C@@H](Cc2ccccc2)C(=O)CCl)cc1 | active: 6.31 µM and active: 3.16 µM | – |
| COc1cc(/C=C/c2nc(C#N)c(NC(C)c3ccccc3)o2)cc(OC)c1OC (configuration not stated) | inconclusive: 39.8 µM [activator, single point] | – |
| O=C1c2ccccc2NC(c2ccc(-c3cccc(Cl)c3)o2)N1O (configuration not stated) | inconclusive: 31.6 µM [inhibitor, single point] | – |
| N#C/C=C(/N)N1CCN(c2ccc(Cl)c(Cl)c2)CC1 | inconclusive: 5.01 µM [inhibitor, partial curve, poor fit] | – |
| O=C1c2ccccc2C(=O)N1CC(=O)N1c2ccccc2CCc2ccccc21 | inconclusive: 39.8 µM [inhibitor, single point] | – |
| Cc1cccc2cc(C#N)c(SCC(=O)NCc3cccs3)nc12 | active: 6.31 µM | – |
| COc1ccc(N/C=C/C(=O)c2ccc(Cl)cc2)cc1 | inconclusive: 31.6 µM [inhibitor, single point] | – |

| SMILES | Potency | max response, negative = inhibition |
| --- | --- | --- |
| CC1=C(C(=O)Nc2ccccc2)C(c2ccccc2Cl)n2ncc(C(=O)Nc3cccc(C)c3)c2N1 (configuration not stated) | active: 20 µM | – |
| COc1ccc(Cl)cc1NC(=O)CSc1nc2ccccc2nc1N1CCCCC1 | inconclusive: 3.16 µM [inhibitor, single point] | – |
| CCOC(=O)c1c(C)oc2ncnc(N3CCN(c4cccc(Cl)c4)CC3)c12 | – | inactive: 2.16% |
| Cc1nn(C)c2c1c(C(F)(F)F)cc(=O)n2C(C)C(=O)N1CCN(c2ccccc2)CC1 (configuration not stated) | inconclusive: 20 µM [activator, single point] | – |
| CC(NC(=O)COC(=O)c1cc(NS(=O)(=O)c2ccc(Cl)c([N+](=O)[O-])c2)ccc1O)C1CC2CCC1C2 (configuration not stated) | active: 6.31 µM | – |
| O=c1c2ccccc2[nH]c(=S)n1Cc1cccs1 | active: 25.1 µM | – |
| COc1ccc2c(c1)OC/C(=C/c1ccc(OC)c(OC)c1)C2=O | inconclusive: 39.8 µM [activator, single point] | – |
| COc1ccccc1-c1nc(NCc2cccnc2)c2ccccc2n1 | – | inactive: -10.4% |
| Oc1nc(Nc2cccc(Cl)c2)sc1/C=C1\C=Nc2ccccc21 | inconclusive: 39.8 µM [inhibitor, single point] | – |
| CCCCOC(=O)CCN1C(=O)/C(=C2\SC(=S)N(CCC(=O)OCCCC)C2=O)SC1=S | active: 12.6 µM | – |
| COc1ccc(Cc2nc3ccc(C(=O)NCc4cc(Br)ccc4OC)cc3o2)cc1 | inconclusive: 39.8 µM [inhibitor, single point] | – |
| O=C(Cc1ccccc1)Nc1cc(-c2nc3cc(Cl)ccc3o2)ccc1Cl | – | inactive: -3.62% |
| COc1ccc(-c2nc(SCC(=O)Nc3cccc(C(C)=O)c3)n[nH]2)cc1 | – | inactive: -0.254% |
| CCc1c(C)nc2nncn2c1Nc1cccc(C)c1 | – | inactive: -7.22% |
| COc1ccccc1CNC(=O)CCCn1c(=O)c2cccn2c2ccccc21 | inconclusive: 20 µM [activator, partial curve, poor fit] | – |
| CCC(C)NC(=O)c1c(N)n(/N=C/c2ccccn2)c2nc3ccccc3nc12 (configuration not stated) | inconclusive: 20 µM [activator, partial curve] | – |
| Cc1cc2c(cc1C)-n1c(-c3ccccc3)c3c(=O)n(C)c(=O)n(C)c3c1C(c1ccco1)N2 (configuration not stated) | inconclusive: 20 µM [activator, partial curve] | – |
| O=C(Nc1ccccc1)c1ccc(NC2CCCCC2)c(S(=O)(=O)N2CCOCC2)c1 | inconclusive: 39.8 µM [inhibitor, single point] | – |
| Cc1nc2ccn(Cc3cccs3)c(=O)c2cc1C(=O)NCc1ccccc1 | inconclusive: 25.1 µM [activator, single point] | – |
| CCN(CC)CCOC(=O)c1ccc(NC(=O)COc2cc(=O)n(CC)c3ccccc23)cc1 | inconclusive: 31.6 µM [activator, single point] | – |
| Fc1ccc(C(c2nnnn2CCc2ccccc2)N2CCCc3ccccc32)cc1 (configuration not stated) | inconclusive: 31.6 µM [inhibitor, single point] | – |
